Laboratory results: the supplement of paper PMC4967469
pIC50: −log10 of the molar value. Lines with a small IC50 respond at low doses; a limit (>, <) means that the fit lies beyond the doses tested. AUC is the area under the same curve over the 256-fold range up to the top dose, as a fraction; the more sensitive the line, the further below 1. A top dose marked as inferred was derived from the fitted curves, not read from the paper. An entry number marks a drug with two screens in the source, which often give different values.

Compound: O=c1[nH]c2ccccc2n1C1CCN(Cc2ccc(-c3[nH]c4cc5ncnc5cc4nc3-c3ccccc3)cc2)CC1 [AKT inhibitor VIII]
Assay: Viability of human cancer cell lines after 72 h of drug (GDSC screen)
Details: top dose inferred
Experimental: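 Human cancer cell lines in 384-well plates, medium with 10% serum, drug for 72 h over a 256-fold dose range (nine 2-fold or five 4-fold steps up to the top dose). Adherent lines were fixed and stained with the nucleic acid dye Syto60, suspension lines read with resazurin; signal relative to control wells, capped at 0 and 100%. One two-parameter sigmoid per drug and line, fitted in a mixed model over all curves with the slope shared within a line.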

[1] = top dose 2.56 µM, screen: GDSC drug entry 171
[2] = top dose 10.24 µM, screen: GDSC drug entry 228

Cell Line | AUC [1] | pIC50 [1] | AUC [2] | pIC50 [2]
NB7 (neuroblastoma, adherent) | 0.984 | < 5.59 | 0.902 | < 4.99
BFTC-909 (kidney, adherent) | 0.928 | < 5.59 | 0.927 | < 4.99
HCC1806 (breast, adherent) | – | – | 0.91 | < 4.99
PL18 (pancreas, adherent) | 0.896 | < 5.59 | 0.988 | < 4.99
OAW-28 (ovary, adherent) | 0.965 | < 5.59 | 0.908 | < 4.99
CFPAC-1 (pancreas, adherent) | 0.921 | < 5.59 | 0.917 | < 4.99
HCC-33 (small cell lung carcinoma, adherent) | 0.964 | < 5.59 | 0.919 | < 4.99
RD (rhabdomyosarcoma, adherent) | 0.942 | < 5.59 | 0.904 | < 4.99
Hs940-T (melanoma, adherent) | 0.917 | < 5.59 | 0.876 | < 4.99
NCI-H748 (small cell lung carcinoma, suspension) | 0.955 | < 5.59 | 0.843 | < 4.99
HLE (liver, adherent) | 0.903 | < 5.59 | 0.988 | < 4.99
RERF-GC-1B (stomach, adherent) | 0.959 | < 5.59 | 0.817 | 5.18
CAL-54 (kidney, adherent) | 0.868 | < 5.59 | 0.902 | < 4.99
BEN (non-small cell lung carcinoma, adherent) | 0.94 | < 5.59 | 0.908 | < 4.99
LB996-RCC (kidney, adherent) | 0.947 | < 5.59 | 0.98 | < 4.99
TALL-1 (T-cell lymphoblastic leukaemia, suspension) | 0.99 | < 5.59 | 0.941 | < 4.99
769-P (kidney, adherent) | 0.96 | < 5.59 | 0.89 | < 4.99
SNU-175 (large intestine, suspension) | – | – | 0.719 | 5.59
A204 (rhabdomyosarcoma, adherent) | 0.883 | < 5.59 | 0.803 | 5.16
NCI-H1355 (lung adenocarcinoma, adherent) | 0.924 | < 5.59 | 0.87 | < 4.99
LC-2-ad (lung adenocarcinoma, adherent) | 0.936 | < 5.59 | 0.848 | 5.10
Capan-2 (pancreas, adherent) | 0.945 | < 5.59 | 0.89 | < 4.99
NCI-H2196 (small cell lung carcinoma, adherent) | 0.966 | < 5.59 | 0.795 | 5.30
NCI-H196 (small cell lung carcinoma, adherent) | 0.97 | < 5.59 | 0.792 | 5.31
SW156 (kidney, adherent) | 0.939 | < 5.59 | 0.923 | < 4.99

Cell Line | AUC [1] | pIC50 [1] | AUC [2] | pIC50 [2]
GP5d (large intestine, adherent) | 0.943 | < 5.59 | 0.801 | 5.36
U031 (kidney, adherent) | 0.955 | < 5.59 | 0.879 | < 4.99
MOLT-13 (T-cell lymphoblastic leukaemia, suspension) | – | – | 0.685 | 5.71
PCI-38 (head and neck, adherent) | 0.87 | 5.62 | 0.939 | < 4.99
HH (T-cell leukaemia, suspension) | 0.825 | 5.64 | 0.431 | 6.41
MLMA (hairy cell leukaemia, semi-adherent) | 0.967 | < 5.59 | 0.749 | 5.47
HT-144 (melanoma, adherent) | 0.96 | < 5.59 | 0.977 | < 4.99
H2803 (mesothelioma, adherent) | 0.933 | < 5.59 | 0.964 | < 4.99
G-401 (kidney, adherent) | 0.917 | < 5.59 | 0.783 | 5.32
SW837 (large intestine, adherent) | 0.969 | < 5.59 | 0.896 | < 4.99
SNU-475 (liver, adherent) | 0.988 | < 5.59 | 0.823 | 5.29
T-24 (bladder, adherent) | 0.985 | < 5.59 | 0.967 | < 4.99
JAR (urogenital system, adherent) | 0.988 | < 5.59 | 0.876 | 5.01
BHY (head and neck, adherent) | 0.94 | < 5.59 | 0.897 | < 4.99
NCI-H2228 (lung adenocarcinoma, adherent) | 0.784 | 5.76 | 0.645 | 5.70
SN12C (kidney, adherent) | 0.944 | < 5.59 | 0.972 | < 4.99
ML-1 (thyroid, adherent) | 0.867 | < 5.59 | 0.893 | < 4.99
KYSE-180 (oesophagus, adherent) | 0.949 | < 5.59 | 0.964 | < 4.99
KYSE-150 (oesophagus, adherent) | 0.947 | < 5.59 | 0.962 | < 4.99
MDA-MB-453 (breast, adherent) | 0.908 | < 5.59 | 0.538 | 6.09
SW1116 (large intestine, adherent) | – | – | 0.963 | < 4.99
CHP-134 (neuroblastoma, suspension) | – | – | 0.868 | < 4.99
A673 (rhabdomyosarcoma, adherent) | 0.976 | < 5.59 | 0.917 | < 4.99
A172 (glioma, adherent) | 0.958 | < 5.59 | 0.946 | < 4.99
CAL-148 (breast, suspension) | 0.935 | < 5.59 | 0.9 | < 4.99

Cell Line | AUC [1] | pIC50 [1] | AUC [2] | pIC50 [2]
MDA-MB-157 (breast, adherent) | 0.964 | < 5.59 | 0.922 | < 4.99
GAMG (glioma, adherent) | 0.872 | < 5.59 | 0.883 | < 4.99
HEL (acute myeloid leukaemia, semi-adherent) | 0.986 | < 5.59 | 0.844 | 5.25
SK-MEL-28 (melanoma, adherent) | 0.962 | < 5.59 | 0.948 | < 4.99
TGBC24TKB (biliary tract, adherent) | 0.962 | < 5.59 | 0.848 | 5.16
COLO-679 (melanoma, adherent) | 0.946 | < 5.59 | 0.904 | < 4.99
SU-DHL-8 (B-cell lymphoma, suspension) | 0.962 | < 5.59 | 0.767 | 5.45
BCPAP (thyroid, adherent) | 0.989 | < 5.59 | 0.957 | < 4.99
KOSC-2 (head and neck, adherent) | 0.959 | < 5.59 | – | –
NCI-H2085 (lung adenocarcinoma, adherent) | 0.912 | < 5.59 | 0.794 | 5.29
CAMA-1 (breast, adherent) | 0.936 | < 5.59 | 0.857 | < 4.99
NCI-H522 (lung adenocarcinoma, adherent) | 0.9 | < 5.59 | 0.887 | < 4.99
SU-DHL-10 (B-cell lymphoma, suspension) | 0.961 | < 5.59 | 0.532 | 6.12
SW1088 (glioma, adherent) | 0.956 | < 5.59 | 0.941 | < 4.99
PANC-10-05 (pancreas, adherent) | 0.943 | < 5.59 | 0.812 | 5.13
ES3 (Ewing sarcoma, adherent) | 0.95 | < 5.59 | 0.73 | 5.52
H-EMC-SS (chondrosarcoma, adherent) | 0.971 | < 5.59 | 0.915 | < 4.99
SK-CO-1 (large intestine, adherent) | 0.923 | < 5.59 | 0.989 | < 4.99
HTC-C3 (thyroid, adherent) | 0.944 | < 5.59 | 0.856 | 5.01
MKN1 (stomach, adherent) | 0.924 | < 5.59 | 0.952 | < 4.99
UACC-812 (breast, adherent) | 0.991 | < 5.59 | 0.939 | < 4.99
KYSE-270 (oesophagus, adherent) | 0.911 | < 5.59 | 0.935 | < 4.99
SK-LU-1 (lung adenocarcinoma, adherent) | 0.954 | < 5.59 | 0.884 | < 4.99
PC-3 (prostate, adherent) | 0.918 | < 5.59 | 0.861 | < 4.99
LNCaP-Clone-FGC (prostate, adherent) | 0.935 | < 5.59 | 0.687 | 5.63

Cell Line | AUC [1] | pIC50 [1] | AUC [2] | pIC50 [2]
BB49-HNC (head and neck, adherent) | 0.951 | < 5.59 | 0.966 | < 4.99
BPH-1 (prostate, adherent) | 0.982 | < 5.59 | 0.708 | 5.58
LOXIMVI (melanoma, semi-adherent) | 0.983 | < 5.59 | 0.968 | < 4.99
TCCSUP (bladder, adherent) | 0.896 | < 5.59 | 0.982 | < 4.99
RL95-2 (endometrium, adherent) | 0.985 | < 5.59 | 0.964 | < 4.99
SW900 (lung squamous cell carcinoma, adherent) | 0.931 | < 5.59 | 0.947 | < 4.99
BICR31 (head and neck, adherent) | 0.947 | < 5.59 | 0.962 | < 4.99
SU-DHL-1 (anaplastic large cell lymphoma, suspension) | 0.997 | < 5.59 | 0.881 | 5.24
MFE-319 (endometrium, adherent) | 0.919 | < 5.59 | 0.889 | < 4.99
NCI-H1573 (lung adenocarcinoma, adherent) | 0.99 | < 5.59 | 0.86 | 5.09
K-562 (chronic myeloid leukaemia, suspension) | 0.988 | < 5.59 | 0.75 | 5.49
NCI-H1915 (large cell lung carcinoma, adherent) | 0.986 | < 5.59 | 0.959 | < 4.99
OVCAR-3 (ovary, adherent) | 0.795 | 5.88 | 0.987 | < 4.99
SW872 (soft tissue, adherent) | 0.956 | < 5.59 | 0.981 | < 4.99
786-0 (kidney, adherent) | 0.768 | 6.05 | 0.767 | 5.46
ECC12 (stomach, suspension) | 0.898 | < 5.59 | – | –
NCI-H2291 (lung adenocarcinoma, adherent) | 0.981 | < 5.59 | 0.936 | < 4.99
NCI-H2171 (small cell lung carcinoma, suspension) | 0.991 | < 5.59 | 0.96 | < 4.99
IST-MES1 (mesothelioma, adherent) | 0.983 | < 5.59 | 0.928 | < 4.99
HPAF-II (pancreas, adherent) | 0.91 | < 5.59 | 0.863 | < 4.99
COR-L311 (small cell lung carcinoma, suspension) | – | – | 0.665 | 5.72
BC-3 (B-cell lymphoma, suspension) | 0.969 | < 5.59 | 0.813 | 5.32
